Results reported in PubChem BioAssay AID1963576 (National Center for Advancing Translational Sciences (NCATS), 2024).
Among all 46,000 compounds or so, about 60 (0.1%) were called active. Roughly 3% stayed inconclusive and do not appear here. Calls come from the whole dose curve; as a rule, active = well fitted inhibition curve with a large enough effect; inconclusive = small, poorly fitted or top-dose-only effect; inactive = no such curve, though single readings can be large or run the other way. The list shows a part of the results.

assay: Primary qHTS assay for Inhibitors of ovarian cancer metastasis using an organotypic tumor microenvironment (TME) model.; note: nearly all actives have a fitted effect of over 65% in size;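 for activity change, negative = inhibition: plate controls were DMSO wells for no effect and tomatine positive control wells for full effect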; settings: SKOV3ip1-GFP adhesion/invasion on 3D omental model, fluorescence; series mostly up to 45.8 µM; activity change, negative = inhibition: at the top concentration
Method in brief: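 qHTS, 4-pt dose (0.36-46 umol/L); SKOV3ip1-GFP, 1,200 cells/well, no FBS; primary omental fibroblast/mesothelial co-culture 48 h pre-grown; 2 h RT + 16 h 37 C; PBS wash, 4% PFA; GFP count 488/509 nm.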

| SMILES | activity change, negative = inhibition | outcome |
| --- | --- | --- |
| COc1ccc(C)cc1NC(=O)c1ccc2c(Cl)c3c(nc2c1)CCC3 | inactive: -13% |  |
| Cn1nc(C(=O)N2CCN(c3ccccc3)CC2)c2c1-c1ccccc1S(=O)(=O)C2 | inactive: 1.35% |  |
| COc1cc2c(cc1OC)n(CC(=O)c1ccc(F)cc1)c(=O)n1nc(CCn3nc(C)cc3C)nc21 | inactive: 2.7% |  |
| COc1cccc(CNC(=O)c2ccc(NC(=O)N3CCCCc4ccccc43)cc2)c1 |  | inactive |
| COc1ccc2oc(=O)cc(CN3CCN(c4ccccc4F)CC3)c2c1 | inactive: 7.26% |  |
| CCCC(=O)N1c2nc(C(C)C)nn2C2(CCCCC2)[C@@H]2CCCC[C@@H]21 | inactive: 13.9% |  |
| COc1cccc(NS(=O)(=O)c2ccc3[nH]cc(C(=O)N(C)C4CCCCC4)c(=O)c3c2)c1 | inactive: -6.74% |  |
| CCCCc1nn2c(=O)cc(COC(=O)c3ccccc3NC(=O)c3ccccc3OC)nc2s1 | inactive: 3.8% |  |
| CCCCn1c(=O)c2oc3ccccc3c2n(CC(=O)Nc2cccc(Cl)c2)c1=O |  | inactive |
| COc1cc(C2CC(=O)Nc3c2c(=O)[nH]c2ncnn32)ccc1O (stereo unspecified) | inactive: -11.3% |  |
| CCCN1CCCc2cc(CN(CCCN3CCOCC3)C(=O)Nc3ccc(CC)cc3)ccc21 | inactive: -0.789% |  |
| Cc1ccc(C)c(NC(=O)Cn2c(=O)n(CCC(=O)NCc3ccc4c(c3)OCO4)c(=O)c3ccccc32)c1 | inactive: 34.8% |  |
| CCOC(=O)C1CCCN(C(=O)c2ccc3c(c2)N(Cc2ccccc2)C(=O)c2ccccc2S3=O)C1 (stereo unspecified) | inactive: -3.53% |  |
| Cc1ccc(OCC(=O)Nc2ccc3nn(-c4ccc(Cl)cc4)nc3c2)cc1 | inactive: -6.6% |  |
| O=c1c2oc3ccccc3c2n(Cc2ccccc2)c(=O)n1Cc1ccc2c(c1)OCO2 |  | inactive |
| CCOC(=O)c1cccc(Nc2ccc3cc(S(=O)(=O)N4CCCCC4)ccc3n2)c1 | inactive: -0.0681% |  |
| O=C(Nc1cccc(Cl)c1)c1csnn1 | inactive: -10.6% |  |
| Cc1nnc(N2CCN(C(=O)Nc3cccc(C(F)(F)F)c3)CC2)c2nn(-c3ccccc3)c(C)c12 | inactive: 2% |  |
| Cc1ccc([N+](=O)[O-])cc1S(=O)(=O)N(C)N=Cc1cnc2ccc(Br)cn12 | inactive: 24.3% |  |
| NC(=O)c1cc(S(=O)(=O)NCC2CCC(C(=O)Nc3ccc(Cl)cc3)CC2)cs1 (stereo unspecified) |  | inactive |
| CCOC(=O)C1CCN(S(=O)(=O)c2cc(-c3onc(C)c3C)ccc2C)CC1 |  | inactive |

| SMILES | activity change, negative = inhibition | outcome |
| --- | --- | --- |
| Cc1cccc(NC(=O)CN(c2ccc(C(C)C)cc2)S(=O)(=O)c2c(C)nn(C)c2C)c1C | inactive: -7.12% |  |
| Cc1ccc(-n2ncc3c(N4CCN(c5ccccc5)CC4)ncnc32)cc1C | inactive: -14.9% |  |
| COC(=O)c1c(NC(=O)c2cc(=O)c3c(C)cc(C)cc3o2)sc2c1CCCC2 | inactive: -8.87% |  |
| CCOC(=O)N1CCN(C(=O)c2ccc3c(c2)N(Cc2ccccc2F)C(=O)c2ccccc2S3=O)CC1 (stereo unspecified) | inactive: 4.24% |  |
| O=C(c1c2c(nc3ccccc13)C(=O)N(C1CCCCC1)C2)N1CCN(c2ccc(F)cc2)CC1 | inactive: 8.43% |  |
| COc1ccc(N2C(=O)CSC23C(=O)N(C)c2ccccc23)cc1Cl (stereo unspecified) | inactive: -2.77% |  |
| CCc1ccccc1Nc1cc(C(=O)NCc2ccc(C)cc2)c2ccccc2n1 |  | inactive |
| COCCn1c(C)cc(O)c(C(c2ccccc2)N2CCC(C)CC2)c1=O (stereo unspecified) |  | inactive |
| CC(=O)N1CCCc2cc(S(=O)(=O)N3CCC(C(=O)N(Cc4ccccc4)C(C)C)CC3)ccc21 | inactive: 6.98% |  |
| CCCOc1ccccc1-c1nc(SCC(=O)c2ccccc2)n[nH]1 |  | inactive |
| Cc1ccc(-c2cc(NC(=O)c3ccccc3Cl)on2)cc1 | inactive: 6.42% |  |
| c1ccc2[nH]c(-c3cscn3)nc2c1 | inactive: -2.2% |  |
| Cn1cc(-c2ccc3nnc(C(F)(F)c4ccc5ncccc5c4)n3n2)cn1 | inactive: 4.6% |  |
| Cc1ccc(S(=O)(=O)c2cn(Cc3cccc(F)c3)c3cc(N4CCCC4)c(F)cc3c2=O)cc1 | inactive: 30.4% |  |
| COc1ccc(C)cc1Nc1nc2c(S(=O)(=O)c3cccc(Cl)c3)nnn2c2ccsc12 | inactive: -2.56% |  |
| CCOc1ccc(NC(=O)c2cc3sc(Cl)cc3n2CC)cc1 | inactive: -14.5% |  |
| CCOC(=O)c1c(S(=O)(=O)N2CCCC(C(=O)Nc3ccc(OCC)cc3)C2)c(C)n(C)c1C (stereo unspecified) | inactive: -0.0065% |  |
| CCCCN(CCCC)c1ncnc2c1cnn2-c1cccc(C)c1 | inactive: -6.74% |  |
| CC(=O)Nc1ccc(S(=O)(=O)N2CCC(c3ccncc3)CC2)cc1 |  | inactive |
| COc1ccc(Br)cc1C(=O)Nc1ccc2oc(-c3cccnc3)nc2c1 | inactive: 0.339% |  |
| Cc1cc(C)n(C(C)CC(=O)NCc2ccccc2C)n1 (stereo unspecified) | inactive: -13.3% |  |

| SMILES | activity change, negative = inhibition | outcome |
| --- | --- | --- |
| CCN1CCN(CCCNC(=O)c2ccc3nc(Cc4ccc(OC)cc4)oc3c2)CC1 | inactive: -11.7% |  |
| O=C(Nc1ccc(C(=O)N2CCN(c3ccc(F)cc3)CC2)cc1)c1nsc2ccccc12 | inactive: 14.2% |  |
| CCOc1cc(CNS(=O)(=O)c2ccc3c(c2)CC(=O)N3C)cc(OCC)c1OCC | inactive: 18.9% |  |
| COc1ccc(C2CC(=O)Nc3c2c(=O)nc2c(C)cccn32)cc1OC (stereo unspecified) | inactive: 12.3% |  |
| CCCCC1CCC(C(=O)N2CC(=O)Nc3ccc(F)cc3C2c2ccc(F)cc2)CC1 (stereo unspecified) | inactive: -7.9% |  |
| Cc1ccc2c(CN3CCN(Cc4ccccc4Cl)CC3)cc(=O)oc2c1 |  | inactive |
| COc1ccc(CCNC(=O)CCCn2c(=O)c3cccn3c3cccnc32)cc1OC |  | inactive |
| Cc1ccccc1C(=O)c1cccn1CC(=O)NCc1ccc(Cl)cc1 | inactive: -3.37% |  |
| CCC1CN(C(=O)NCc2cccc(OC)c2)c2cc(Cl)ccc2O1 (stereo unspecified) |  | inactive |
| COc1ccc(OCc2ccc(-c3nc(C#N)c(N4CCN(C)CC4)o3)o2)cc1 | inactive: -14.3% |  |
| COc1ccccc1CNC(=O)Cc1c(C)c2c(cc(C)c3c(C)c(C)oc32)oc1=O | inactive: -16.4% |  |
| CCCC(=O)Nc1ccc2c(c1)nc(CN1CCN(C(=O)OCC)CC1)n2C(C)C | inactive: -23.5% |  |
| COc1ccc(NC(=O)CSc2cn(CC(=O)N3CCCCC3)c3ccccc23)c(OC)c1 | inactive: -1.72% |  |
| CCOc1ccc(CNC(=O)c2ccc(Sc3ccc(Cl)cc3)c(NC(C)=O)c2)cc1 |  | inactive |
| CCOC(=O)c1cc2c(=O)n3ccccc3nc2n(CC2CCCO2)c1=NC(=O)c1ccc(C(C)(C)C)cc1 (stereo unspecified) | inactive: -5.96% |  |
| Cc1nc2sc(C(=O)N(C)Cc3ccccc3)c(NC(=O)c3ccccc3)c2c(C)c1Cl |  | inactive |
| CCn1c2ccccc2c2nnc(N3CCN(c4ccc(F)cc4)CC3)nc21 | inactive: -10.5% |  |
| COc1ccc(NC(=O)c2ccc(CN3C(=O)CCn4nc(C)cc43)cc2)c(OC)c1 | inactive: -7.82% |  |
| CCOC(=O)c1c(NC(=O)COc2cccc(C(F)(F)F)c2)sc2c1CCC(C)C2 (stereo unspecified) | inactive: 9.19% |  |
